Screen size: about 410,000 compounds; about 6,400 (1.6%) were called active. Inconclusive means that the source gave no clear call. Such entries were picked first, then a sample of the others. The call rests on the fitted dose curve; in most records, active means well fitted inhibition curve with a large enough effect; inconclusive means small, poorly fitted or top-dose-only effect; inactive means no such curve, though single readings can be large or run the other way. Potencies of inconclusive entries are left out as doubtful fits.
target: Glucagon-like peptide 1 receptor (Homo sapiens) (UniProt P43220); assay: qHTS of GLP-1 Receptor Inverse Agonists (Inhibition Mode); conditions: HEK293 GLP-1R CRE-luciferase, luminescence, 24 h, GLP-1R form is constitutively active; activity change, negative = inhibition: at 38.3 µM (top of the series) unless noted; further: nearly all actives have a fitted effect of over 55% in size
Outline: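 Seeding at 200 cells/uL, 12 h culture, 24 hr compound treatment, then luciferase reagent and a luminescence read; cells are HEK293 stably expressing a constitutively active GLP-1R plus cAMP-responsive luciferase.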
On the % scale 0 is the no-effect control and ±100 the full control effect; potency means the concentration at half of the fitted maximal effect; tags describe the fitted curve by direction and shape.

Sequence of UniProt P43220 (P43220 whole entry, looked up): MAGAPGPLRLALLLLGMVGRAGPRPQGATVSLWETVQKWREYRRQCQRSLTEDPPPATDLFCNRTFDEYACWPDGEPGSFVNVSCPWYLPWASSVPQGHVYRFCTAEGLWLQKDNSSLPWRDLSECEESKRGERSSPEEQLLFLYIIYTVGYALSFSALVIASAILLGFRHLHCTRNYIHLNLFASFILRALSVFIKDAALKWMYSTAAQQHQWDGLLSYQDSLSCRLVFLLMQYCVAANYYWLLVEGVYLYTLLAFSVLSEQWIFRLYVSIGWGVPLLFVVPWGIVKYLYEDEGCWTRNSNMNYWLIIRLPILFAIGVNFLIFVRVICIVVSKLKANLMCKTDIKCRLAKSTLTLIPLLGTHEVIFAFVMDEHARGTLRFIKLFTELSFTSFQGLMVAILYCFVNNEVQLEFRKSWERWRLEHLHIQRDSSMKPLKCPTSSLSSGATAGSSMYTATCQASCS

Compound	Potency	activity change, negative = inhibition
CCCCN1CC(c2nc3ccccc3n2CCCCOc2c(C)cccc2C)CC1=O (centres undefined)	inconclusive [inhibitor, partial curve, poor fit]	
CCN(C(=O)CN1C(=O)/C(=C/c2ccc(F)cc2)SC1=S)C1CCS(=O)(=O)C1 (centres undefined)	inconclusive [inhibitor, partial curve]	
COc1ccc(C2=CC(c3ccc(C)cc3)n3nnnc3N2)cc1 (centres undefined)		inactive: 36.5%
Cc1ccc(S(=O)(=O)N2CCC(C(=O)N3CCCCCCC3)CC2)cc1C	inconclusive [inhibitor, single point]	
Cc1ccc(Cl)cc1N1CCN(C(=O)CN(C2CCCCC2)S(C)(=O)=O)CC1	inconclusive [inhibitor, single point]	
CCN(C(=O)c1cnc(NC(C)C)cc1C(F)(F)F)c1ccc(Cl)cc1Cl	inconclusive [inhibitor, single point]	
CCOC(=O)N1C(=O)C[C@](Sc2ccc(C)cc2)(C(=O)OC)[C@H]1c1ccccc1		inactive: 5.79%
O=C(CCCC(=O)Nc1cccc(Br)c1)N/N=C/c1cc([N+](=O)[O-])ccc1O	inconclusive [inhibitor, full curve, poor fit]	
Cc1nc2c(=O)[nH]c(=S)n(C)c2nc1C		inactive: 4.15%
CCOc1cccc(/C=N/NC(=O)c2cccnc2)c1O	inconclusive [inhibitor, full curve]	
O=C(OCCOc1ccc(Br)cc1)c1ccc(Cl)c(S(=O)(=O)N2CCOCC2)c1	inconclusive [inhibitor, single point]	
CCOCCCn1c(SCC(=O)Nc2ccccc2OC)nc2c(oc3ccccc32)c1=O	inconclusive [inhibitor, single point]	
Cc1ccc(C)c(C(=O)N2CCC(c3nc4c(nnn4Cc4ccccc4)c(=O)[nH]3)CC2)c1	inconclusive [inhibitor, single point]	
O=C1OCc2cc(NC(=O)C34CC5CC(CC(C5)C3)C4)ccc21	inconclusive [inhibitor, single point]	
O=C(N/N=C/c1cc(O)ccc1Br)c1cccnc1	inconclusive [inhibitor, full curve, poor fit]	
O=C(Nc1ccc(Br)c(Cl)c1)C1CC1	inconclusive [inhibitor, single point]	
CC(C)(C)c1ccc(CC(=O)N2CCC2(C)C(=O)Nc2ccc(F)cc2F)cc1 (centres undefined)	inconclusive [inhibitor, partial curve, poor fit]	
CCOc1ccccc1N1CC(c2nc3ccccc3n2CCCCOc2ccccc2)CC1=O (centres undefined)		inactive: 1.25%
Cc1ccc(Nc2nnc(C(C)(C)C)c(=O)n2N)cc1	inconclusive [inhibitor, single point]	
CC(NC(=O)c1c(O)nc2ccccn2c1=O)c1ccccc1 (centres undefined)	inconclusive [inhibitor, partial curve, poor fit]	
O=C(NCCc1ccccc1)c1ccc2nc(-c3ccco3)c(-c3ccco3)nc2c1	inconclusive [inhibitor, single point]	
CCCS(=O)(=O)c1ccc(COC(=O)c2ccc(NC(C)=O)cc2)cc1		inactive: -0.873%

Compound	Potency	activity change, negative = inhibition
COc1ccc(OC)c(C2CC(=O)Nc3ccc4ccccc4c32)c1 (centres undefined)	inconclusive [inhibitor, single point]	
Cc1ccccc1NC(=O)Nc1ccc2c(c1)OCO2		inactive: 17.5%
CC(C)(C)c1cc(C(=S)N2CCN(CCO)CC2)cc(C(C)(C)C)c1O		inactive: 0%
CC1Cc2cc(S(=O)(=O)CCC(=O)Nc3ccc(OC(F)(F)F)cc3)ccc2N1C(=O)C1CC1 (centres undefined)	inconclusive [inhibitor, partial curve, poor fit]	
O=C(NCc1ccc(-c2csnn2)cc1)c1cccs1		inactive: 1.49%
O=C(CCn1c(=O)c2cccn2c2cccnc21)NCc1cccc(Br)c1		inactive: 10.7%
C(=C\n1nnc2ccccc21)/c1ccccn1	inconclusive [inhibitor, single point]	
N#CCCN(C(=O)Nc1ccc(Cl)c(Cl)c1)C1CCCCC1	inconclusive [inhibitor, partial curve, poor fit]	
Cc1cc(Br)cn2c(Cc3ccsc3)c(-c3ccc(Cl)cc3)nc12	inconclusive [inhibitor, partial curve]	
CC(C)(C)NC(=O)CN(c1cccc([N+](=O)[O-])c1)S(=O)(=O)c1ccccc1	inconclusive [inhibitor, full curve, poor fit]	
CC(C)Cn1c(SCc2cccc(F)c2)nc2ccsc2c1=O	inconclusive [inhibitor, partial curve, poor fit]	
Cc1ccc(S(=O)(=O)N2CCN(C(=O)c3ccc(COc4ccccc4)o3)CC2)cc1	inconclusive [inhibitor, single point]	
CCOc1ccc(NC(=O)c2oc3ccccc3c2NC(=O)C(C)Oc2ccccc2)cc1 (centres undefined)	inconclusive [inhibitor, partial curve, poor fit]	
CN=C(Nc1ccc(Cl)cc1)c1ccc(C(F)(F)F)cc1	inconclusive [inhibitor, single point]	
Cc1c(C(=O)NC2CCCCC2C)oc2ccccc12 (centres undefined)	inconclusive [inhibitor, partial curve, poor fit]	
C/C(=N\Nc1nccnc1Cl)c1c(F)c(F)c(F)c(F)c1F		inactive: -0.0219%
CCCCCc1c(C)nc(Nc2ccccc2)[nH]c1=O	inconclusive [inhibitor, partial curve, poor fit]	
COc1ccccc1NC(=O)c1ccc(Br)o1	inconclusive [inhibitor, partial curve, poor fit]	
CCC/C(O)=C1\C(=O)CC(C)(C)CC1=NCc1ccccc1	inconclusive [inhibitor, partial curve, poor fit]	
CCc1ccccc1NC(=O)[C@H](Cc1ccccc1)N1Cc2ccccc2C1=O	inconclusive [inhibitor, single point]	
Cc1ccc(N(CCC#N)C(=O)COC(=O)C2CCN(c3ccc(C(F)(F)F)cn3)CC2)cc1	inconclusive [inhibitor, partial curve, poor fit]	
COc1ccc(-c2nc(C)ncc2N=Nc2ccccc2)cc1	inconclusive [inhibitor, single point]	

Compound	Potency	activity change, negative = inhibition
O=C(NCCNCCO)c1c(O)c2cccc3c2n(c1=O)CCC3	inconclusive [inhibitor, single point]	
O=C(CN1C(=O)NC2(CCc3ccccc32)C1=O)NCc1ccc(Cl)cc1 (centres undefined)	inconclusive [inhibitor, partial curve, poor fit]	
OCCC1CN(Cc2ccccc2OC2CCCC2)CCN1Cc1ccsc1 (centres undefined)	inconclusive [inhibitor, single point]	
O=C(NCc1ccccn1)c1ccc(S(=O)(=O)Nc2ccccc2F)cc1		inactive: 15%
O=c1c2c3c(sc2n2c(=S)[nH]nc2n1-c1ccccc1)CCC3		inactive: 0.652%
O=C1CC(N2CCN(c3nc4ccccc4s3)CC2)C(=O)N1Cc1cccs1 (centres undefined)	inconclusive [inhibitor, partial curve]	
COc1ccc(-c2noc(C3CC(=O)N(c4ccc5c(c4)OCCO5)C3)n2)c(OC)c1 (centres undefined)		inactive: 14.7%
COc1cccc(NS(=O)(=O)c2cc(-c3cnc(C4CC4)o3)ccc2C)c1	inconclusive [inhibitor, full curve, poor fit]	
COc1ccccc1C(CNc1ncnc2sc(C)c(C)c12)N(C)C (centres undefined)	inconclusive [inhibitor, single point]	
COc1cccc(C2=CC(=O)C[C@H](c3ccc(F)cc3)C2)c1	inconclusive [inhibitor, single point]	
CC1(C(=O)NCc2ccccc2)Cc2c(-c3cccc(C(F)(F)F)c3)ccnc2O1 (centres undefined)	inconclusive [inhibitor, partial curve, poor fit]	
COc1cc(OC)cc(C(=O)NCCCCc2ccccc2)c1	inconclusive [inhibitor, single point]	
COc1cc2c(cc1NC(=O)CSc1nccn1C)oc1ccccc12	inconclusive [inhibitor, partial curve, poor fit]	
COc1ccccc1NC(=S)N1CCCc2ccccc21		inactive: -2.72% [at 0.307 µM]
CCOc1ccc(N(C(=O)Cn2nnc3ccccc32)C(C(=O)NC(C)(C)CC)c2cccn2C)cc1 (centres undefined)	inconclusive [inhibitor, full curve]	
COc1ccccc1OCC(=O)Nc1cc(S(=O)(=O)N2CCOCC2)ccc1N1CCCCC1	inconclusive [inhibitor, single point]	
C=CCN(c1ccc(Cl)cc1)S(=O)(=O)c1cccc(C(=O)OCC(=O)N(C)C)c1	inconclusive [inhibitor, partial curve, poor fit]	
CCOc1ccc2nc(N(CCCN(C)C)C(=O)c3ccc4c(c3)CCCC4)sc2c1	inconclusive [inhibitor, full curve, poor fit]	
COc1cc(OC)nc(Nc2nc(C(N)c3ccccc3Cl)cs2)n1 (centres undefined)	inconclusive [inhibitor, single point]	
CCCCC(=O)Nc1ccc2c(c1)oc1ccccc12	inconclusive [inhibitor, partial curve]	
